Assay results from PubChem BioAssay AID504832 (National Center for Advancing Translational Sciences (NCATS), 2011).
The whole screen tested about 310,000 compounds, of which about 18,000 (5.8%) were called active. Inconclusive results, whose numbers are uncertain, are shown with a selection of clear calls. The call rests on the fitted dose curve; in most records, active means well fitted inhibition curve with a large enough effect; inconclusive means small, poorly fitted or top-dose-only effect, or another doubt; inactive means no such curve, though single readings can be large or run the other way. Potencies of inconclusive entries are left out as doubtful fits.

assay: Primary qHTS for delayed death inhibitors of the malarial parasite plastid, 48 hour incubation; conditions: P. falciparum luciferase growth in erythrocytes; series mostly up to 28.7 µM
Procedure, shortened: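 Firefly luciferase activity from engineered P. falciparum reports growth; inhibitors lower the luminescent signal. Cultures contained 2% hematocrit erythrocytes at 0.1% final parasitemia.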
Potency means the concentration at half of the fitted maximal effect; tags describe the fitted curve by direction and shape.

| SMILES | Potency |
| --- | --- |
| COCC1CCN(Cc2cn[nH]c2-c2ccc(OC)cc2F)C1 (stereo not given) | inconclusive [inhibitor, full curve] |
| COc1ccc(NC(=O)C(C)N(C)Cc2ccc3ccccc3c2)cc1 (stereo not given) | inconclusive [inhibitor, partial curve, poor fit] |
| CCOc1ccccc1NC(=O)c1cnc(NS(=O)(=O)c2ccccc2)nc1 | inactive |
| COc1ccc(OC)c(NC(=O)c2ccc(CN(c3cc(Cl)ccc3C)S(=O)(=O)c3ccccc3)cc2)c1 | active: 1.47 µM |
| CCOC(=O)C1[C@H]2C(=O)N(C(C)c3ccc(OC)cc3)C[C@]23C=C[C@H]1O3 (stereo not given in full) | inactive |
| CCCCN(C(=O)c1ccc(N2C(=O)c3ccccc3C2=O)cc1)c1c(N)n(CC(C)C)c(=O)[nH]c1=O | inactive |
| NC(=O)CC(NC(=O)Cc1ccc(Cl)cc1)c1ccc(NC2CCN(Cc3ccccc3)CC2)c([N+](=O)[O-])c1 (stereo not given) | inconclusive [inhibitor, single point] |
| COc1cc(NC(=O)c2ccc(C)cc2C)ccc1NC(=O)c1cc2ccccc2o1 | inactive |
| Cc1ccc(CSc2nnc(CS(=O)Cc3ccc(Cl)cc3Cl)n2C)cc1 (stereo not given) | inconclusive [inhibitor, single point] |
| CC(C)=NNc1nc(-c2ccc([N+](=O)[O-])cc2)cs1 | inactive |
| CC(=O)c1cccc(NC(=O)c2csc(-n3nc(C)cc3C(F)(F)F)n2)c1 | inconclusive [inhibitor, single point] |
| Cn1c(-c2cnn(-c3ccccc3)c2-n2cccc2)n[nH]c1=S | inactive |
| CC(=O)Oc1ccc2oc(=O)c3c(c2c1)CCCN3C(=O)CN1CCN(c2ncccn2)CC1 | inconclusive [inhibitor, full curve, poor fit] |
| Cc1ccc(C(=O)OC(C(=O)O)C(OC(=O)c2ccc(C)cc2)C(=O)O)cc1 (stereo not given) | inconclusive [inhibitor, single point] |
| O=C(Cc1coc2cc3c(cc12)CCC3)NCC1(N2CCCCC2)CCCCC1 | inconclusive [inhibitor, single point] |
| CS(=O)(=O)C1=NSC2=NC(=O)/C(=C\c3ccc(OC(=O)c4ccco4)cc3)C(=N)N21 | inactive |
| COC(=O)c1c(NC(C)=O)sc2c1CCCC2 | inactive |
| CCOC(=O)C1(CCOc2ccccc2)CCN(Cc2cccc(OC)c2OC)CC1 | inconclusive [inhibitor, full curve, poor fit] |
| Clc1cccc(Nc2nc(-c3cccnc3)cs2)c1 | inconclusive [inhibitor, single point] |
| COc1ccc(-c2csc(Nc3ccc(S(=O)(=O)Nc4cc(C)on4)cc3)n2)cc1C | inconclusive [inhibitor, partial curve, poor fit] |
| CC(=O)NCCC(=O)Nc1cc(S(=O)(=O)N2CCCCC2)ccc1N1CCN(C)CC1 | inconclusive [inhibitor, single point] |
| CC1CCC(C(C)C)C(OC(=O)Cn2c(COc3ccccc3)[n+](C)c3ccccc32)C1 (stereo not given) | active: 1.65 µM |
| O=C(COC(=O)c1ccccc1F)Nc1cccnc1Cl | inactive |

| SMILES | Potency |
| --- | --- |
| CC(NC(=O)CCc1nnc(C2(c3ccc(Cl)cc3)CCC2)o1)C1CC1 (stereo not given) | inconclusive [inhibitor, partial curve, poor fit] |
| Cc1onc(-c2ccccc2Cl)c1C(=O)OCc1nnc(-c2ccccc2)o1 | inconclusive [inhibitor, single point] |
| CCOC(=O)c1sc(N(Cc2ccccc2)C(=O)CCl)nc1C | inconclusive [inhibitor, single point] |
| O=C(CCc1ccccn1)NC1CCCc2c1cnn2-c1ccc(F)cc1F (stereo not given) | inactive |
| CCOc1ccc(NC(=O)CN(C)C(=O)CC2CCCC2)cc1OCC | inconclusive [inhibitor, single point] |
| COC(=O)c1c(N)n(-c2ccc(NC(C)=O)cc2)c2nc3ccccc3nc12 | inconclusive [inhibitor, single point] |
| CCN(CC)C(=O)CSc1nnc2c3ccccc3n(C)c2n1 | inactive |
| CC1(c2ccc(OCC#N)cc2)C=C(c2ccc(OCC#N)cc2)n2nc(C(F)(F)F)nc2N1 (stereo not given) | active: 9.28 µM |
| CCOc1ccc(N(CC(=O)Nc2cccc(OC)c2)S(C)(=O)=O)cc1 | inconclusive [inhibitor, full curve, poor fit] |
| O=C(NCc1cccnc1)/C(=C/c1ccccc1)NC(=O)c1ccccc1 | inactive |
| Oc1ccc(C(c2nnnn2C2CCCC2)N2CCc3ccccc3C2)cc1 (stereo not given) | inconclusive [inhibitor, single point] |
| COc1ccc(NC(=S)NCc2cccs2)c(OC)c1 | inactive |
| CCc1ccc(CN(C)Cc2nc(Cc3ccc(OC)c(OC)c3)no2)nc1 | inconclusive [inhibitor, partial curve, poor fit] |
| O=C(N/C(=C/c1cccs1)C(=O)N1CCCC1)c1ccccc1 | inactive |
| COc1ccc(C)cc1-n1nnnc1SCC(=O)NC1CCS(=O)(=O)C1 (stereo not given) | inconclusive [inhibitor, single point] |
| C#CCNC(=O)C1=C[C@@H](c2cn(C(C)=O)c3ccccc23)C[C@@H](OCCCCO)O1 | inconclusive [inhibitor, single point] |
| COc1ccc(S(=O)(=O)N2CCCCCC2)cc1NS(=O)(=O)c1cc(C(=O)O)cc(C)c1C | inactive |
| CCc1c(C(=O)Nc2ccc(S(=O)(=O)N3CCOCC3)cc2)csc1C | inconclusive [inhibitor, single point] |
| Cc1cc(C)c2cc(C#N)c(SCC(=O)Nc3ccc4c(c3)OCO4)nc2c1 | inactive |
| Cc1ccc(C(=O)N2CCN(c3ccc(NC(=O)c4cccnc4)cc3)CC2)cc1 | inconclusive [inhibitor, partial curve, poor fit] |
| C/C(=N\O)C(C)(C)Nc1ccc(Br)cc1 | inactive |
| Cc1cc(C(=O)Nc2ccccc2C(=O)O)c(C)o1 | inactive |
